# Experimental data as given in PubChem BioAssay AID1347073 (National Center for Advancing Translational Sciences (NCATS), 2019).
# The whole screen tested about 45,000 compounds, of which about 200 (0.44%) were called active. Another 7% or so got no clear call; they are omitted. The call rests on the fitted dose curve; in most records, active means well fitted activation curve with a large enough effect; inconclusive means small, poorly fitted or top-dose-only effect; inactive means no such curve, though single readings can be large or run the other way. The list shows a part of the results.
# Experiment: qHTS of TDP-43 Inhibitors: NCGC Sytravon Library Screen; further: 0% is about no effect; nearly all actives have a fitted effect of over 55% in size
# Conditions: yeast TDP-43 toxicity rescue, BacTiter-Glo growth, 24 h; series mostly up to 46.1 µM; growth rescue (activation): at the top concentration
# In short: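 TDP-43-expressing yeast, pregrown in raffinose, seeded at OD600 0.02 in galactose medium with compound for 24 hr at 30 deg C. Growth read by BacTiter-Glo luminescence, so rescue of toxicity appears as activation.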
row,SMILES,growth rescue (activation)
1,O=C(Nc1ccc(S(=O)(=O)NC2=NCCCCC2)cc1)c1cccc(S(=O)(=O)N2CCOCC2)c1,inactive: 3.72%
2,CCOc1ccc(C(C)=O)cc1COc1ccc(C)nc1[N+](=O)[O-],inactive: 20.3%
3,O=C1OCC(c2ccccc2)=C1c1ccccc1[N+](=O)[O-],inactive: 19.7%
4,COc1ccc(Cc2nnc(SCC(=O)Nc3ccc(N4CCOCC4)cc3)n2C)cc1,inactive: -8.72%
5,C=CCn1c(SCc2ccc(Br)cc2F)nc2cc(C(=O)O)ccc2c1=O,inactive: 12.9%
6,COc1ccc(-c2cc(NC=O)c3ncc(-c4cccc(C(=O)N(C)C)c4)n3c2)c(OC)c1,inactive: 3.29%
7,O=C(NCCCN1CCOCC1)c1cc(Cl)ccc1OCc1ccccc1,inactive: -0.187%
8,CN1CCN(NC(=O)c2cc(Br)ccc2Cl)CC1,inactive: -15%
9,Cc1cc(C)n(CC(=O)NNC(=O)c2cncc(Br)c2)n1,inactive: 15.8%
10,COc1ccc(CNC(=O)CN(c2ccc(C(C)=O)cc2)S(=O)(=O)c2ccc(C)cc2)cc1OC,inactive: 10.1%
11,O=C(Nc1nnc(SCC(=O)N2CCOCC2)s1)C1CC(=O)N(c2ccccc2)C1 (stereo not drawn),inactive: -3.76%
12,CC(C)(C)NS(=O)(=O)c1cc(C(=O)O)ccc1Cl,inactive: 0.528%
13,COc1ccc(/C=N/NC(=O)c2ccc(COc3cccc4cccnc34)cc2)cc1OC,inactive: 1.68%
14,COc1cccc(N2C(=O)c3cccnc3C2O)c1 (stereo not drawn),inactive: -13.4%
15,Cc1ccc(C(=O)NC2CCCCCCC2)cc1S(=O)(=O)N1CCOCC1,inactive: 24.4%
16,CN(C)S(=O)(=O)c1cccc(NC(=O)c2cc3c(cc2Cl)N2CCCCCC2=NS3(=O)=O)c1,inactive: 16.4%
17,Cc1ccc(NC(=O)C2CCN(S(=O)(=O)c3cccs3)CC2)cc1C,inactive: -0.0814%
18,COc1cccc(NC(=O)CSc2nnc(NC(=O)C3CC3)s2)c1,inactive: 13.1%
19,CN1CCN(C(=S)Nc2ccc(Oc3ccccc3)cc2)CC1,inactive: 5.43%
20,COc1ccc(C(=O)Nc2ccc(NC(=O)c3cccs3)cn2)cc1,inactive: 14.3%
21,COc1ccc(N(CC(=O)NC2CC3CCC2C3)S(=O)(=O)c2ccccc2)cc1OC (stereo not drawn),inactive: -22.6%
22,Cc1ccc(CN(C)C(=O)CCc2c[nH]c3ccccc23)o1,inactive: 16.9%

row,SMILES,growth rescue (activation)
1,O=c1[nH]c(C2CCN(S(=O)(=O)c3ccc(S(=O)(=O)NC4CC4)cc3)CC2)nc2c1nnn2Cc1ccc(F)cc1,inactive: 5.13%
2,O=S(=O)([O-])C/C(=C\c1ccc(Cl)cc1)c1cc[n+](CCO)cc1,inactive: 5.68%
3,CC(C)=CCn1c2ccc(NC(=O)Nc3ccc(N(C)C)cc3)cc2c(=O)n1C,inactive: 2.75%
4,CC(C)(C)n1ncc2c(=O)n(CC(=O)OCc3ccccc3)cnc21,inactive: -24.6%
5,CCN(CC)c1ncnc2c1ncn2[C@H]1CN(Cc2ccc(F)cc2)C[C@@H](CO)O1,inactive: 4.82%
6,CCC(C)C(=O)Nc1nnc(SCC(=O)NC2CCCC2)s1 (stereo not drawn),inactive: -10%
7,COc1ccc(-c2cc(-c3nnc(COC(=O)c4ccc(O)cc4)o3)c3ccccc3n2)cc1OC,inactive: 16.9%
8,Cn1nc(OCCOc2ccccc2)ccc1=O,inactive: 6.14%
9,Cc1ccc(CCNC(=O)C2CCC(=O)N2CCc2ccccc2)cc1 (stereo not drawn),inactive: -2.91%
10,CCC(C)c1ccccc1NC(=O)CN(CC)CC(=O)Nc1ccc2c(c1)OCCO2 (stereo not drawn),inactive: 15.6%
11,CC(C)CC(=O)Nc1ccc(N2CCN(C(=O)c3cccs3)CC2)cc1,inactive: 3.29%
12,CC(C)CN1CCC(CN(C)Cc2nc(-c3cnccn3)no2)CC1,inactive: -4.29%
13,COc1cc(=O)[nH]c(SC(C)C(=O)Nc2cccc3ccccc23)n1 (stereo not drawn),inactive: 10.3%
14,CCOC(=O)N1CCN(C(=O)NC23CC4CC(CC(C4)C2)C3)CC1,inactive: -7.19%
15,CCCC(C)(C)C(=O)N1CCC1(C)C(=O)NS(=O)(=O)c1cccc(Cl)c1 (stereo not drawn),inactive: -8.76%
16,CCN(CC)S(=O)(=O)c1ccc(O)c(C(=O)OCC(=O)Nc2ccc(OC(F)(F)F)cc2)c1,inactive: -11%
17,CCOC(=O)c1cnn(-c2ccccc2)c1NC(=O)CCl,inactive: -3.59%
18,O=C(NC1CCCC1)C(c1cccnc1)N(C(=O)c1csnn1)c1ccccc1 (stereo not drawn),inactive: 9.26%
19,Cc1nnc(SCC(=O)NC(C)(C)C)n1NCc1ccc(N(C)C)cc1,inactive: 7.22%
20,O=C(Nc1ccc([N+](=O)[O-])cc1Br)c1cc2ccccc2nc1Cl,inactive: 0.353%
21,O=C(CCl)Nc1ccc(-c2ccccc2)cc1,inactive: 25%
22,COC(=O)C1=C(C)NC(=O)CC1c1ccccc1OC (stereo not drawn),inactive: 8.03%

row,SMILES,growth rescue (activation)
1,CCCc1nnc(SCC(=O)Nc2cc(C)on2)n1CCOC,inactive: -5.27%
2,CS(=O)(=O)N(CC(=O)N1CCc2ccccc2C1)c1cccc(F)c1,inactive: 2.4%
3,CCCn1nnc(NC(=O)c2ccc([N+](=O)[O-])cc2Cl)n1,inactive: 17.6%
4,Nc1ncnc2nc(SCCOc3ccc(Cl)cc3)[nH]c12,inactive: 19.4%
5,OC[C@@H]1CN(CCN2CCOCC2)C[C@H](n2cnc3c(NC4CCCC4)ncnc32)O1,inactive: 9.69%
6,COc1cc(NC(=O)CN2CCN(c3ccccn3)CC2)cc(OC)c1OC,inactive: -14.6%
7,OCCOCCN1CCN(C(=S)Nc2ccccc2)CC1,inactive: -1.63%
8,COc1ccc(Cc2noc(CN3CCCN(Cc4ccc(F)cc4)CC3)n2)cc1OC,inactive: 0.257%
9,CC(=O)C1=C(O)C(=O)N(c2cccnc2)C1c1cccc([N+](=O)[O-])c1 (stereo not drawn),inactive: -11.6%
10,CCc1ccccc1Nc1nc(N)nc(CSc2nnc3ccccn23)n1,inactive: 9.62%
11,CCOC(=O)C(=O)Nc1cc([N+](=O)[O-])ccc1C,inactive: -20.4%
12,Cc1nnc(-c2cnn(C)c2N)n1CCCN1CCOCC1,inactive: 6.38%
13,CC(C)N(C)c1ncnc2c1ncn2[C@H]1CN(Cc2cccnc2)C[C@@H](CO)O1,inactive: 7.52%
14,Clc1ccc(-c2ccc(CNCC3CCCO3)o2)cc1 (stereo not drawn),inactive: 5.88%
15,Cc1ccccc1C(=O)NC(C)C1CC2CCC1C2 (stereo not drawn),inactive: 14.1%
16,C/C(=N\NS(=O)(=O)c1ccccc1)c1cc(Cl)cc(Cl)c1O,inactive: -80.4%
17,CCN(Cc1nc(-c2ccccc2)no1)C(=O)COc1cccc(OC)c1,inactive: 0.483%
18,Cc1ccc(S(=O)(=O)NC2=NCN(CC(=O)O)CN2)cc1,inactive: 9.62%
19,O=S(=O)(Nc1ccccc1)c1ccc(NS(=O)(=O)c2cccs2)cc1,inactive: 18.1%
20,COc1ccc(CC(=O)NCC2(c3ccc(OC)c(OC)c3)CCOCC2)cc1,inactive: 24.1%
21,COc1ccc(/C=N/NC(=O)CN2CCCc3ccccc32)c(OC)c1,inactive: 28.5%
22,Cc1ccc(NC(=O)NCc2nc3ccccc3n2C)cc1,inactive: -19.9%

row,SMILES,growth rescue (activation)
1,CC(=O)Nc1ccc(NC(=O)CCc2c(C)nc3c(c(C)nn3-c3ccc(C)cc3)c2C)cc1,inactive: 5.1%
2,CCOc1ccccc1NC(=O)NCc1cccnc1,inactive: -10.4%
3,Cc1ccccc1OCC(=O)NN1C(=O)C2C3C=CC(O3)C2C1=O (stereo not drawn),inactive: -12.8%
4,Cc1cc(Nc2cccc([N+](=O)[O-])c2)c2cccc(C)c2n1,inactive: 9.66%
5,C(#Cc1ccc(C#CCN2CCCC2)cc1)CN1CCCC1,inactive: 21.7%
6,CCOc1cc(/C=N/n2nnnc2N)ccc1OCc1c(C)no[n+]1[O-],inactive: 9.23%
7,Cc1ccc(S(=O)(=O)N(CC(=O)N2CCOCC2)c2ccc(Br)cc2)cc1,inactive: 5.01%
8,CCOC(=O)c1c(NC(=S)Nc2ccc(OC)cc2)sc2c1CCC2,inactive: 12.5%
9,CCOC(=O)N1CCN(C(=O)c2cc3c(=O)n4cccc(C)c4nc3s2)CC1,inactive: 13.3%
10,O=C(Nc1cnn(Cc2ccc(F)cc2)c1)c1cc(-c2ccco2)on1,inactive: 12.8%
11,COc1ccc(S(=O)(=O)N2CCCCC2)cc1N(C)S(=O)(=O)c1ccccc1,inactive: -8.14%
12,NC(=O)CCN1CCN(Cc2cn[nH]c2-c2cccc3ccccc23)CC1,inactive: 5.97%
13,CCN(Cc1ccccc1)C(=O)CS(=O)(=O)c1ccccc1,inactive: -6.12%
14,OCC1(CCOc2ccccc2)CCN(CC2=Cc3cc(Cl)ccc3OC2)CC1,inactive: 10.1%
15,O=C(COC(=O)C1CC2C=CC1C2)Nc1ccccc1 (stereo not drawn),inactive: 10.4%
16,COc1ccc(Nc2nc(N)c(C(=O)c3ccc(OC)cc3)s2)cc1,inactive: -6.82%
17,CC1(C(=O)Nc2ccc3c(c2)OCO3)Cc2c(-c3ccc4c(c3)OCO4)ccnc2O1 (stereo not drawn),inactive: 13.1%
18,COc1ccc(F)cc1C(=O)C1CCCN(Cc2cccn2-c2ccccn2)C1 (stereo not drawn),inactive: -4.01%
19,COc1ccccc1OCCNC(=O)C1CCCCC1,inactive: -4.74%
20,O=C(CSc1nnc(SCc2ccc(Cl)cc2)s1)N/N=C/c1ccccc1Cl,inactive: 6.73%
21,CCCCCCC1/C(=N/O)CCC1C(=O)OC (stereo not drawn),inactive: 8.43%
22,C/C(N)=C(/C#N)C(=O)CSc1nnc(Nc2ccccc2)s1,inactive: 3.45%

row,SMILES,growth rescue (activation)
1,Cc1cc(C(=O)Cn2cnc3ccc(Cl)cc3c2=O)c(C)n1C1CC1,inactive: -32.4%
2,COc1ccccc1CN(CC(=O)NCc1ccc(F)cc1)C(=O)c1csnn1,inactive: 13.1%
3,O=C(CSc1nc(O)cc(=O)[nH]1)N1c2ccccc2Sc2ccccc21,inactive: 19.1%
4,O=C(Nc1ccc(N2CCOCC2)cc1)c1csc([C@H]2C[C@H](O)[C@@H](CO)O2)n1,inactive: -5.08%
5,COCCCn1c(SCC(=O)NC(C)(C)C)nnc1-c1cccs1,inactive: -18.2%
6,O=C(N/N=C/c1c[nH]c2ccccc12)c1ccc(Br)cc1,inactive: -4.33%
7,CC1(C(=O)NS(=O)(=O)C2CC2)CCN(C(=O)c2ccccc2OC(F)(F)F)C1 (stereo not drawn),inactive: -17%
8,O=C(O)c1c2c(nc3ccccc13)/C(=C/c1ccc(OC(F)F)cc1)CCC2,inactive: 12.9%
9,CC(Sc1ccc(Cl)cc1)C(=O)NNC(=O)c1ccco1 (stereo not drawn),inactive: 29.6%
10,Cc1ccc(C(=O)COC(=O)C2CCC2)cc1,inactive: -12.6%
11,O=C(NCCc1ccccc1)C1CCC(=O)N1CCc1ccccc1 (stereo not drawn),inactive: 12.1%
12,CN(C(=O)c1cc(S(=O)(=O)N2CCOCC2)cs1)c1ccccc1,inactive: 3.35%
13,CN(C)CCCC(=O)c1ccc2c(c1)OCO2,inactive: -2.25%
14,Cc1c(C(=O)NC(=S)NCC(C)C)oc2ccccc12,inactive: 13.8%
15,Cc1ccc(-n2nc3c(=O)n(CC(=O)Nc4ccccc4F)nc(C)c3c2C)c(C)c1,inactive: 2.53%
16,COc1ccc(/C=C2\SC(=NCc3ccccc3)N(Cc3ccccc3)C2=O)cc1OC,inactive: 8.38%
17,Cc1c(Cl)c([N+](=O)[O-])nn1CC(=O)NCc1cccnc1,inactive: 14.4%
18,Fc1ccc(CNCCC(Cc2ccccc2)c2ccco2)cc1 (stereo not drawn),inactive: -1.87%
19,CSc1ccc(CN2CCC(CO)(Cc3ccc(Cl)cc3)CC2)cc1,inactive: 0.3%
20,CCOc1ccccc1OCCCC(=O)Nc1cc(S(=O)(=O)N2CCOCC2)ccc1OC,inactive: 7.91%
